From the supplement of paper PMC11876631
Numbering of substitutions follows the chain as printed. In names and notes the source's numbering stands. ± gives the standard deviation of the averaged measurements. Laboratory Escherichia coli strains with one amino-acid change in an essential protein, pooled on minimal glucose agar with carbenicillin or gentamicin at twice the control MIC (plus kanamycin and chloramphenicol for the plasmids), 48 h. Fold change of barcode share against drug-free plates; higher = less susceptible. Active = above 20 in both replicates (the paper's putatively resistant). '<' = one read or none on drug, '>' = one read or none on a drug-free plate. Shares are relative, so most strains fall below 1 when a few take over. Listed are strains with at least 15 reads on both drug-free plates, and hits; most hits rest on fewer reference reads. Replicate rank correlation about 0.5. Edits are read from barcodes.

B1: lptG V64Q (protein)
chain: MQPFGVLDRYIGKTIFTTIMMTLFMLVSLSGIIKFVDQLKKAGQGSYDALGAGMYTLLSVPKDQQIFFPMAALLGALLGLGMLAQRSELVVMQASGFTRMQVALSVMKTAIPLVLLTMAIGEWVAPQGEQMARNYRAQAMYGGSLLSTQQGLWAKDGNNFVYIERVKGDEELGGISIYAFNENRRLQSVRYAATAKFDPEHKVWRLSQVDESDLTNPKQITGSQTVSGTWKTNLTPDKLGVVALDPDALSISGLHNYVKYLKSSGQDAGRYQLNMWSKIFQPLSVAVMMLMALSFIFGPLRSVPMGVRVVTGISFGFVFYVLDQIFGPLTLVYGIPPIIGALLPSASFFLISLWLLMRKS
B2: lptG V64P (protein)
chain: B1 chain with Q64P
B3: lptG F68A (protein)
chain: B1 chain with Q64V, F68A
B4: lptG F68W (protein)
chain: B1 chain with Q64V, F68W
B5: lptG V64D (protein)
chain: B1 chain with Q64D
B6: lptG F68Q (protein)
chain: B1 chain with Q64V, F68Q
B7: aroC M133D (protein)
chain: MAGNTIGQLFRVTTFGESHGLALGCIVDGVPPGIPLTEADLQHDLDRRRPGTSRYTTQRREPDQVKILSGVFEGVTTGTSIGLLIENTDQRSQDYSAIKDVFRPGHADYTYEQKYGLRDYRGGGRSSARETADRVAAGAIAKKYLAEKFGIEIRGCLTQMGDIPLDIKDWSQVEQNPFFCPDPDKIDALDELMRALKKEGDSIGAKVTVVASGVPAGLGEPVFDRLDADIAHALMSINAVKGVEIGDGFDVVALRGSQNRDEITKDGFQSNHAGGILGGISSGQQIIAHMALKPTSSITVPGRTINRFGEEVEMITKGRHDPCVGIRAVPIAEAMLAIVLMDHLLRQRAQNADVKTDIPRW

What follows are proteins tested against Escherichia coli (laboratory strain) (assay: barcode share on antibiotic plates over drug-free plates; higher = less susceptible). Settings: antibiotic: carbenicillin; 2× MIC (3.1 µg/mL).
Method: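 A pool of E. coli strains, each edited to carry one amino-acid change in an essential protein, was grown for 48 h on minimal glucose agar with or without antibiotic; strain barcodes were sequenced; mean of two replicates.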

| Protein | fold change of barcode share |
| --- | --- |
| B1 | 0.656 ± 0.15 |
| B2 | 0.469 ± 0.3 |
| B3 | 0.479 ± 0.17 |
| B4 | 0.467 ± 0.13 |
| B5 | 0.44 ± 0.23 |
| B6 | 0.576 ± 0.14 |
| B7 | 0.67 ± 0.17 |

Same assay, conditions: antibiotic: gentamicin; 2× MIC (MIC 0.45 µg/mL)

| Protein | fold change of barcode share |
| --- | --- |
| B1 | 0.172 ± 0.23 |
| B2 | 0.00862 ± 0.003 |
| B3 | 0.0381 ± 0.046 |
| B4 | 0.0347 ± 0.037 |
| B5 | 0.00369 ± 0.0019 |
| B6 | 0.0127 ± 0.0095 |
| B7 | < 0.00466 |
